Results reported in the supplement of paper PMC5919970.
Counter-ions that a name gives are not always drawn. Whole data set: some 2,000 compounds, median “fractional viability relative to vehicle” near 0.92, cut for the lowest 2% near 0.11. The list shows a part of the results.

Test system: TYKNU
Assay: fractional viability relative to vehicle; TYKNU is a high-grade serous ovarian cancer line; higher = less growth inhibition
Conditions: 72 h, genotype: OPA1 knockout (sgOPA1 #2)
In short: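 Drug treatment lasted 72 h, with cells grown at 37 °C in 5% CO2 in RPMI 1640 supplemented with 10% FBS. Beforehand, TYKNU control cells or their lentiCRISPRv2 knockout derivatives had been seeded at 500 cells per well into drug-stamped 384-well plates carrying a ~2100-compound library at 2 or 10 μM, in duplicate. Viability came from Cell Titer Glo luminescence, with averaged duplicate treatment wells normalised to duplicate control wells in the same plate position.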

Compound | fractional viability (2uM) | fractional viability (10uM)
C[C@H]1O[C@@H](Oc2c(-c3cc(O)c(O)c(O)c3)oc3cc(O)cc(O)c3c2=O)[C@@H](O)[C@@H](O)[C@@H]1O [Myricitrin] | 0.865 | 0.856
Cc1ccc2c(=O)c3cccc(CC(=O)O)c3oc2c1C [DMXAA (Vadimezan)] | 1.14 | 1.07
CCOC(=O)c1[nH]c2cc(Cl)ccc2c1C(C(=O)NC(C)(C)C)N(C=O)Cc1ccc(Cl)cc1 (configuration not stated) | 0.864 | 0.464
CCCCN1CCCCC1C(=O)Nc1c(C)cccc1C (configuration not stated) [Bupivacaine HCl] | 0.883 | 1.18
O=C1NCCCc2c1oc1ccc(O)cc21 | 1.1 | 1.15
COc1ccccc1OCC(O)COC(N)=O (configuration not stated) [Methocarbamol] | 0.973 | 0.984
CCc1c(Cl)c(O)c(Cl)c(O)c1C(=O)O[C@H]1[C@H](O)[C@H](OC)[C@H](OC/C2=C\C=C\C[C@H](O)/C(C)=C/[C@H](CC)[C@@H](O[C@@H]3OC(C)(C)[C@@H](OC(=O)C(C)C)[C@H](O)[C@@H]3O)/C(C)=C/C(C)=C/C[C@@H]([C@@H](C)O)OC2=O)O[C@@H]1C [Fidaxomicin] | 1.09 | 0.7
Nc1ccn([C@@H]2CS[C@H](CO)O2)c(=O)n1 [Lamivudine] | 0.862 | 0.907
COC(=O)Nc1nc2cc([S+]([O-])c3ccccc3)ccc2[nH]1 (configuration not stated) [Oxfendazole] | 0.993 | 0.99
N#Cc1c(NC(=O)c2cccc3ccccc23)sc2c1CCCC2 [JNK Inhibitor IX] | 0.428 | 0.386
C=CC(=O)Nc1cccc(Nc2nc(Nc3ccc(OCCOC)cc3)ncc2F)c1 | 0.823 | 0.577
CCC(=O)Nc1cccc(Oc2nc(Nc3ccc(N4CCN(C)CC4)cc3OC)ncc2Cl)c1 | 0.956 | 0.769
O=C(C[S+]([O-])Cc1ccco1)NC/C=C\COc1cc(CN2CCCCC2)ccn1 (configuration not stated) [Lafutidine] | 1.1 | 1.05
C#CCC(Cc1cnc2nc(N)nc(N)c2n1)c1ccc(C(=O)N[C@@H](CCC(=O)O)C(=O)O)cc1 (some centres not stated) [Pralatrexate] | 0.642 | 0.551
O=C(c1ccccc1)c1ccc2n1CCC2C(=O)O (configuration not stated) [Ketorolac] | 1.02 | 1.01
COc1c(N2CCNC(C)C2)c(F)cc2c(=O)c(C(=O)O)cn(C3CC3)c12 (configuration not stated) [Gatifloxacin] | 1.28 | 1.18
CCN(CC)CCCC(C)Nc1nc(C)cc(Nc2ccc3nc(C)cc(N)c3c2)n1 (configuration not stated) | 0.891 | 0.898
COc1ccc(S(=O)(=O)N(CCO)c2ccccc2CN(C)C/C=C/c2ccc(Cl)cc2)cc1 [KN-93 Phosphate] | 0.76 | 0.524
O=C(Nc1ccccc1Br)N[C@@H]1CCN(c2ccc(C(F)(F)F)cn2)C1 | 0.807 | 0.82
O=C(NOCC(O)CO)c1cc(Br)c(F)c(F)c1Nc1ccc(I)cc1F (configuration not stated) | 0.756 | 0.448
CN(C)CC(c1ccc(O)cc1)C1(O)CCCCC1 (configuration not stated) [Desvenlafaxine] | 1.14 | 1.01
CN(C)CC(c1ccc(O)cc1)C1(O)CCCCC1 (configuration not stated) [Desvenlafaxine Succinate] | 1.12 | 0.972

Compound | fractional viability (2uM) | fractional viability (10uM)
CN(C)C/C=C/C(=O)Nc1cc2c(Nc3ccc(F)c(Cl)c3)ncnc2cc1O[C@H]1CCOC1 [Afatinib (BIBW2992)] | 0.907 | 0.236
CN(C)C/C=C/C(=O)Nc1cc2c(Nc3ccc(F)c(Cl)c3)ncnc2cc1O[C@H]1CCOC1 [Afatinib (BIBW2992) Dimaleate] | 0.82 | 0.722
O=C(Nc1ccccc1)Nc1ccc(-c2ccc(C(=O)[C@@H]3CCC[C@H]3C(=O)O)cc2)cc1 | 0.882 | 0.847
O=C1NC(=O)C(c2ccccc2)(c2ccccc2)N1 [Phenytoin] | 1.05 | 1.16
CC(C)(O)c1ccccc1CC[C@@H](SCC1(CC(=O)O)CC1)c1cccc(/C=C/c2ccc3ccc(Cl)cc3n2)c1 [Montelukast Sodium] | 0.964 | 0.947
Cc1cc(OCc2nnc(SC3CCCC3)n2-c2cccnc2)ccc1-c1ccc(S(C)(=O)=O)cc1 | 0.693 | 0.201
CNC(=O)c1ccc(C)c(-n2c(C)cc(OCc3ccc(F)cc3F)c(Br)c2=O)c1 | 1.09 | 0.96
CCCCCCCCCCCC[N+](C)(C)CCOc1ccccc1 [Domiphen Bromide] | 0.653 | 0.194
Cc1ccc(-n2nc(C(C)(C)C)cc2NC(=O)Nc2ccc(OCCN3CCOCC3)c3ccccc23)cc1 [BIRB 796 (Doramapimod)] | 1.26 | 1.07
c1ccc(CN(CC2=NCCN2)c2ccccc2)cc1 [Antazoline HCl] | 0.961 | 0.764
CN(C)Cc1ccc(S(=O)(=O)n2ccc(/C=C/C(=O)NO)c2)cc1 [Resminostat] | 0.836 | 0.308
Nc1ncnc2n[nH]c(Nc3ccc(F)cc3)c12 | 0.989 | 0.896
CC[C@H](C)C[C@H](C)CCCCCCCCC(=O)N[C@H]1C[C@@H](O)[C@@H](NCCN)NC(=O)[C@@H]2[C@@H](O)CCN2C(=O)[C@H]([C@H](O)CCN)NC(=O)[C@H]([C@H](O)[C@@H](O)c2ccc(O)cc2)NC(=O)[C@@H]2C[C@@H](O)CN2C(=O)[C@H]([C@@H](C)O)NC1=O [Caspofungin Acetate] | 1.01 | 1.02
CCn1cc(NC(=S)Nc2cc(Cl)ccc2OC)c(C(N)=O)n1 | 0.941 | 0.905
CN(C)CC/C=C1/c2ccccc2COc2ccc(CC(=O)O)cc21 [Olopatadine HCl] | 1 | 0.882
O=C(/C=C/c1ccc(O)c(O)c1)O[C@@H]1C[C@](O)(C(=O)O)C[C@@H](O)[C@H]1O [Chlorogenic Acid] | 0.982 | 0.751
C[C@@H]1COC(Nc2ccc3ncnc(Nc4ccc(OCc5nccs5)c(Cl)c4)c3c2)=N1 [Varlitinib] | 1.53 | 0.649
Oc1cccc(-c2nc(N3CCOCC3)c3oc4ncccc4c3n2)c1 | 0.47 | 0.451
Cn1cc(-c2ccc3c(c2)CCN3C(=O)Cc2cccc(C(F)(F)F)c2)c2c(N)ncnc21 | 1.17 | 0.836
CC(=O)OCC(=O)[C@H]1CC[C@H]2[C@@H]3CCC4=CC(=O)CC[C@]4(C)[C@H]3CC[C@]12C [Deoxycorticosterone acetate] | 1.03 | 0.975
C#C[C@]1(O)CC[C@H]2[C@@H]3CCC4=CC(=O)CC[C@@H]4[C@H]3CC[C@@]21CC [Levonorgestrel] | 1.19 | 1.09
N#C/C(=C\c1ccc(O)c(O)c1)C(=O)NCc1ccccc1 [AG-490 (Tyrphostin B42)] | 1.03 | 1.08

Compound | fractional viability (2uM) | fractional viability (10uM)
CCCOc1ccc(C(=O)OCCN(CC)CC)cc1N [Proparacaine HCl] | 1.17 | 1.04
CCN(CC)CCCCNc1ncc2cc(-c3cc(OC)cc(OC)c3)c(NC(=O)NC(C)(C)C)nc2n1 | 1.51 | 0.756
CC[C@@H](CO)NCCN[C@@H](CC)CO [Ethambutol HCl] | 0.969 | 0.932
CC(C)C[C@H](NC(=O)CNC(=O)c1cc(Cl)ccc1Cl)B1OC(=O)C(CC(=O)O)(CC(=O)O)O1 | 0.335 | 0.299
O=C1CCC(N2C(=O)c3ccccc3C2=O)C(=O)N1 (configuration not stated) [Thalidomide] | 1.07 | 1.03
c1cn2cc(-c3ccc4cn[nH]c4c3)nc(Nc3ccc(N4CCOCC4)cc3)c2n1 | 1.06 | 0.15
C[C@H](CCC(=O)NCCS(=O)(=O)O)[C@H]1CC[C@H]2[C@@H]3[C@@H](O)C[C@@H]4C[C@H](O)CC[C@]4(C)[C@H]3CC[C@]12C [Sodium Tauroursodeoxycholate (TUDC)] | 0.832 | 0.834
C=CCn1c(=O)c2cnc(Nc3ccc(N4CCN(C)CC4)cc3)nc2n1-c1cccc(C(C)(C)O)n1 | 0.482 | 0.582
Clc1ccc(C(Cn2ccnc2)OCc2csc3c(Cl)cccc23)c(Cl)c1 (configuration not stated) [Sertaconazole nitrate] | 0.94 | 0.76
O=C(Nc1cccc2cccnc12)c1ccc(N2C(=O)[C@@H]3[C@H](C2=O)[C@@H]2C=C[C@H]3C2)cc1 [IWR-1-endo] | 0.851 | 0.872
CC1(C)S[C@@H]2[C@H](NC(=O)Cc3ccccc3)C(=O)N2[C@H]1C(=O)O [Penicillin G Sodium] | 0.867 | 0.976
CCCCc1nc(Cl)c(CO)n1Cc1ccc(-c2ccccc2-c2nnn[nH]2)cc1 [Losartan Potassium (DuP 753)] | 1.09 | 1.1
CCOc1cc(N)c(Cl)cc1C(=O)NCC1CN(Cc2ccc(F)cc2)CCO1 (configuration not stated) [Mosapride Citrate] | 1.15 | 0.973
COC(=O)[C@H](CCSC)NC(=O)c1ccc(NC[C@@H](N)CS)cc1-c1ccccc1 | 0.769 | 0.691
Cc1cccc(Nc2ccccc2C(=O)O)c1C [Mefenamic Acid] | 1.14 | 1.01
CCC(C)n1ncn(-c2ccc(N3CCN(c4ccc(OCC5COC(Cn6cncn6)(c6ccc(Cl)cc6Cl)O5)cc4)CC3)cc2)c1=O (configuration not stated) [Itraconazole] | 0.902 | 0.947
CN(C)CCNC(=O)c1cccn2c(=O)c3cc4ccccc4cc3nc12 | 0.61 | 0.294
C[C@H]1[C@H](OC(=O)CCC(=O)O)O[C@@H]2O[C@@]3(C)CC[C@H]4[C@H](C)CC[C@@H]1[C@@]24OO3 [Artesunate] | 0.674 | 0.481
O=C1OC(CN2CCOCC2)CN1/N=C/c1ccc([N+](=O)[O-])o1 (configuration not stated) [Furaltadone HCl] | 1.2 | 1.16
Cc1ccc(-c2c(-c3nn(C)c4ncnc(N5CC[C@H](N6CCCCC6)C5)c34)cnn2C)cc1 | 0.983 | 1.09
Cc1cc(C)c(CNC(=O)c2cc(-c3ccc(N4CCN(C)CC4)nc3)cc3c2c(C)cn3C(C)C)c(=O)[nH]1 | 0.878 | 0.945
CC(C)(C(=O)NCC(F)(F)C(F)(F)F)C(=O)N[C@@H]1C(=O)Nc2ccccc2-c2ccccc21 | 0.939 | 1.01
